The source of these data is the supplement of paper PMC9446081.

Out of some 39,000 compounds screened, about 220 (0.56%) showed activity. The list shows a part of the results.
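Further: static incubation at 37 °C against the wild-type strain, values averaged over two biological replicates.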

In the assay the test system is Escherichia coli K-12 BW25113. The assay is described as follows: relative growth (OD600 normalised to plate interquartile mean) (fraction); higher = less growth inhibition, active = 0.2 or less. The following applies: 50 µM; LB; incubation time: overnight (16-24 h).
Regarding `C[C@@H]1CN([C@@H](C)CO)C(=O)c2cccc(NS(=O)(=O)c3cn(C)cn3)c2O[C@@H]1CN(C)S(=O)(=O)c1ccc(F)cc1`, the relative growth is inactive: 0.989. As to `C[C@H]1CCCCO[C@@H](CN(C)C(=O)Nc2ccc(C(F)(F)F)cc2)[C@@H](C)CN([C@@H](C)CO)C(=O)c2cc(NC(=O)Nc3cccc4ccccc34)ccc2O1`, the relative growth is inactive: 1.03. On to `C[C@@H]1CN([C@H](C)CO)C(=O)Cc2cc(NS(=O)(=O)c3ccc(F)cc3)ccc2O[C@H]1CN(C)S(C)(=O)=O`, for which the relative growth is inactive: 0.976. The same measure for `COc1ccc(NC(=O)Nc2ccc3c(c2)C(=O)N([C@H](C)CO)C[C@@H](C)[C@@H](CN(C)Cc2ccc(-c4ccccc4)cc2)O3)cc1`: inactive: 1.04. Consider `COc1ccc(NC(=O)N2C[C@H](O)COC[C@@H]3O[C@H](CC(=O)NCc4ccccc4OC)CC[C@H]32)cc1`, for which the relative growth is inactive: 0.984.

As to `CN(C)CC(=O)N[C@@H]1CC[C@@H](CC(=O)O)O[C@H]1CO`, the relative growth was inactive: 1. The value for `CNCCCC12CCC(c3ccccc31)c1ccccc12.Cl` was inactive: 0.874; that for `C[C@@H]1CCCCO[C@H](CN(C)C(=O)Nc2ccc(C(F)(F)F)cc2)[C@H](C)CN([C@@H](C)CO)C(=O)c2cc(NS(=O)(=O)c3ccc(Cl)cc3)ccc2O1` was inactive: 1; that for `C[C@@H]1CN([C@H](C)CO)C(=O)c2cc(NS(C)(=O)=O)ccc2O[C@@H](C)CCCCO[C@@H]1CN(C)S(=O)(=O)c1ccccc1` was inactive: 1.02. Take `Cn1c(=O)cc(N2CCC[C@@H](N)C2)n(Cc2ccccc2C#N)c1=O`: the relative growth was inactive: 1.

Consider `COc1ccc(NC(=O)N(C)C[C@H]2OCCCC[C@@H](C)Oc3ccc(NC(=O)Nc4cccc5ccccc45)cc3C(=O)N([C@H](C)CO)C[C@@H]2C)cc1`, for which the relative growth was inactive: 0.989. On to `CN1C(=O)c2cc(NC(=O)c3ccc(F)c(F)c3)ccc2OC[C@@H]2O[C@@H](CC(=O)N3CCOCC3)CC[C@H]21`, for which the relative growth was inactive: 0.97.

In the case of `COCC(=O)N(C)C[C@H]1Oc2cc(C#C[C@@H](C)O)ccc2S(=O)(=O)N([C@H](C)CO)C[C@H]1C`, the relative growth is inactive: 0.985. As for `C[C@H]1CN([C@@H](C)CO)C(=O)c2cccc(NC(=O)c3ccc(-c4nccs4)cc3)c2O[C@H]1CN(C)C(=O)Nc1ccc(C(F)(F)F)cc1`, the relative growth is inactive: 0.984. Turning to `C[C@@H]1CCCCO[C@H](CN(C)C(=O)Nc2ccc(C(F)(F)F)cc2)[C@@H](C)CN([C@H](C)CO)C(=O)c2cc(N(C)C)ccc2O1`, the relative growth was inactive: 0.969.

Take `C[C@@H]1CN([C@@H](C)CO)S(=O)(=O)c2ccc(C#C[C@@H](C)O)cc2O[C@H]1CN(C)C(=O)c1ccccc1`: the relative growth was inactive: 1.02. For `CO[C@@H]1CN(C)C(=O)c2ccc(NC(=O)Nc3ccccc3F)cc2OC[C@@H](C)N(Cc2ccccc2C(=O)O)C[C@H]1C`, the relative growth is inactive: 1.03. With `C[C@@H]1CN([C@@H](C)CO)S(=O)(=O)c2ccc(Br)cc2O[C@@H]1CN(C)C(=O)c1ccccn1`, the relative growth was inactive: 0.991. On to `C[C@H]1CN([C@@H](C)CO)C(=O)Cc2cc(NC(=O)Cc3ccccc3)ccc2O[C@@H]1CN(C)S(=O)(=O)c1ccc(F)cc1`, for which the relative growth was inactive: 1.02.

Regarding `O=C1NC(=O)C2(CCCCC2)N1`, the relative growth was inactive: 0.933. Regarding `C[C@@H]1CCCCO[C@@H](CN(C)C(=O)c2ccccc2)[C@@H](C)CN([C@@H](C)CO)C(=O)c2cc(NC(=O)Cc3ccccc3)ccc2O1`, the relative growth was inactive: 1.02. As for `C[C@@H]1CN([C@H](C)CO)S(=O)(=O)c2ccc(C#Cc3ccc(F)cc3)cc2O[C@@H]1CN(C)S(=O)(=O)c1cn(C)cn1`, the relative growth is inactive: 1.02. For the compound `Cc1ccc(S[C@]2(C(=O)NC3CC3)CC(=O)N(Cc3ccccc3C(F)(F)F)[C@@H]2c2ccc(CO)cc2)cc1`, the relative growth is inactive: 1.01.

Turning to `CCCN(C)C[C@@H]1OCCCC[C@H](C)Oc2ccc(NC(=O)C3CCCCC3)cc2C(=O)N([C@H](C)CO)C[C@@H]1C`, the relative growth was inactive: 0.973. In the case of `CC(=O)NS(=O)(=O)c1ccc(N)cc1`, the relative growth was inactive: 1.12. Take `Cc1noc(C)c1NC(=O)N(C)C[C@H]1Oc2cc(C#CCN(C)C)ccc2S(=O)(=O)N([C@@H](C)CO)C[C@@H]1C`: the relative growth was inactive: 0.979. In the case of `Cc1[nH]c(=O)[nH]c(=O)c1S(=O)(=O)N1CCN(c2ccccc2)CC1`, the relative growth was inactive: 0.795. Turning to `CCNC(=O)C[C@@H]1C=C[C@H](NC(=O)C2CC2)[C@@H](CO)O1`, the relative growth is inactive: 0.897. As to `C[C@@H]1CCCCO[C@@H](CN(C)C(=O)Nc2ccccc2)[C@H](C)CN([C@H](C)CO)C(=O)c2cc(NC(=O)CCC(F)(F)F)ccc2O1`, the relative growth was inactive: 1. As for `C[C@@H]1CN([C@@H](C)CO)C(=O)Cc2cc(NC(=O)C3CCCCC3)ccc2O[C@@H]1CN(C)Cc1ccc(C(F)(F)F)cc1`, the relative growth is inactive: 1.03.

As for `C[C@@H]1CN([C@@H](C)CO)C(=O)Cc2cc(NC(=O)Cn3cnnn3)ccc2O[C@@H]1CN(C)S(=O)(=O)c1ccc(F)cc1`, the relative growth is inactive: 0.977.

As for `C[C@@H]1CN([C@H](C)CO)S(=O)(=O)c2ccc(C#C[C@@H](C)O)cc2O[C@@H]1CN(C)C(=O)c1ccncc1`, the relative growth is inactive: 1.01. Regarding `COCC#Cc1cnc2c(c1)C(=O)N([C@H](C)CO)C[C@@H](C)[C@@H](CN(C)C(=O)Nc1cc(F)ccc1F)O2`, the relative growth is inactive: 0.985. Consider `C[C@H]1CN([C@@H](C)CO)C(=O)c2cc(NC(=O)Nc3ccc4c(c3)OCO4)ccc2O[C@H]1CN(C)C(=O)Nc1ccc(C(F)(F)F)cc1`, for which the relative growth is inactive: 0.997. Regarding `C[C@@H]1CN([C@@H](C)CO)C(=O)c2cccc(NC(=O)Nc3ccc(F)cc3)c2O[C@H]1CN(C)CC1CCCCC1`, the relative growth was inactive: 0.919. In the case of `CN1C(CCl)Nc2cc(Cl)c(S(N)(=O)=O)cc2S1(=O)=O` (centres undefined), the relative growth was inactive: 0.971.

With `CO[C@H]1CN(C)C(=O)c2ccc(NS(C)(=O)=O)cc2OC[C@@H](C)N(C(=O)C2CCOCC2)C[C@H]1C`, the relative growth is inactive: 1.02.

On to `C[C@H]1CN([C@@H](C)CO)C(=O)c2cc(NC(=O)C3CC3)ccc2O[C@@H]1CN(C)C(=O)NC1CCCCC1`, for which the relative growth is inactive: 1.02.

`COc1ccc(NC(=O)N(C)C[C@@H]2OCCCC[C@H](C)Oc3ccc(NC(=O)CCC(F)(F)F)cc3C(=O)N([C@@H](C)CO)C[C@@H]2C)cc1`: the relative growth was inactive: 1.
